# The list shows a part of the results.
# Tests used:
# Test in all cases: glycan array binding signal (z-score within array); higher = stronger binding
# Conditions in all cases: glycan notation: IUPAC condensed, linker removed
# [1] = biological target: Neu5Ac(a2-6)Gal(b1-4)GlcNAc(b1-6)GalNAc
# Outline: (§1)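 Glycan array data were curated from 3228 arrays in the Consortium for Functional Glycomics database and kept only where the protein sequence was available. Glycan names were converted to IUPAC-condensed notation, and columns mapping to the same glycan were averaged. The binding signal is a within-array Z-score, averaged across arrays of the same protein sequence at different concentrations or buffers and across linkers. Negative Z-scores can be read as non-binding.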
# [2] = biological target: Neu5Ac(a2-6)Gal(b1-4)GlcNAc(b1-6)[Gal(b1-3)GlcNAc(b1-3)]Gal(b1-4)Glc
# Outline: as §1
# [3] = biological target: Neu5Ac(a2-6)Gal(b1-4)GlcNAc(b1-6)[Gal(b1-3)]GalNAc
# Outline: as §1
# [4] = biological target: Neu5Ac(a2-6)Gal(b1-4)GlcNAc6S
# Outline: as §1
# [5] = biological target: Neu5Ac(a2-6)GalNAc
# Outline: as §1
# [6] = biological target: Neu5Ac(a2-6)GalNAc(b1-4)GlcNAc
# Outline: as §1
# [7] = biological target: Neu5Ac(a2-6)GalNAc(b1-4)GlcNAc6S
# Outline: as §1
# [8] = biological target: Neu5Ac(a2-6)GlcNAc(b1-4)GlcNAc
# Outline: as §1
# [9] = biological target: Neu5Ac(a2-6)GlcNAc(b1-4)GlcNAc(b1-4)GlcNAc
# Outline: as §1
# [10] = biological target: Neu5Ac(a2-8)Neu5Ac
# Outline: as §1
# [11] = biological target: Neu5Ac(a2-8)Neu5Ac(a2-3)Gal(b1-3)GalNAc(b1-4)[Neu5Ac(a2-3)]Gal(b1-4)Glc
# Outline: as §1
# [12] = biological target: Neu5Ac(a2-8)Neu5Ac(a2-3)Gal(b1-3)GalNAc(b1-4)[Neu5Ac(a2-8)Neu5Ac(a2-3)]Gal(b1-4)Glc
# Outline: as §1
# [13] = biological target: Neu5Ac(a2-8)Neu5Ac(a2-3)Gal(b1-4)Glc
# Outline: as §1
# [14] = biological target: Neu5Ac(a2-8)Neu5Ac(a2-3)Gal(b1-4)GlcNAc
# Outline: as §1
# [15] = biological target: Neu5Ac(a2-8)Neu5Ac(a2-3)[Gal(b1-3)GalNAc(b1-4)]Gal(b1-4)Glc
# Outline: as §1
# [16] = biological target: Neu5Ac(a2-8)Neu5Ac(a2-3)[GalNAc(b1-4)]Gal(b1-4)Glc
# Outline: as §1
# [17] = biological target: Neu5Ac(a2-8)Neu5Ac(a2-8)Neu5Ac
# Outline: as §1
# [18] = biological target: Neu5Ac(a2-8)Neu5Ac(a2-8)Neu5Ac(a2-3)Gal(b1-4)Glc
# Outline: as §1
# [19] = biological target: Neu5Ac(a2-8)Neu5Ac(a2-8)Neu5Ac(a2-3)[Gal(b1-3)GalNAc(b1-4)]Gal(b1-4)Glc
# Outline: as §1
# [20] = biological target: Neu5Ac(a2-8)Neu5Ac(a2-8)Neu5Ac(a2-3)[GalNAc(b1-4)]Gal(b1-4)Glc
# Outline: as §1
# [21] = biological target: Neu5Ac(a2-8)Neu5Ac(a2-8)Neu5Ac(a2-8)Neu5Ac(a2-3)[GalNAc(b1-4)]Gal(b1-4)Glc
# Outline: as §1
# [22] = biological target: Neu5Ac(a2-8)Neu5Gc(a2-3)Gal(b1-4)GlcNAc
# Outline: as §1
# [23] = biological target: Neu5Ac(b2-6)Gal(b1-4)GlcNAc
# Outline: as §1
# [24] = biological target: Neu5Ac(b2-6)GalNAc
# Outline: as §1
# [25] = biological target: Neu5Ac9Ac(a2-3)Gal(b1-3)GlcNAc
# Outline: as §1
# [26] = biological target: Neu5Ac9Ac(a2-3)Gal(b1-4)GlcNAc
# Outline: as §1
# [27] = biological target: Neu5Ac9Ac(a2-6)Gal(b1-4)GlcNAc
# Outline: as §1
# [28] = biological target: Neu5Gc(a2-3)Gal(b1-3)GlcNAc
# Outline: as §1
# [29] = biological target: Neu5Gc(a2-3)Gal(b1-3)[Fuc(a1-4)]GlcNAc
# Outline: as §1
# [30] = biological target: Neu5Gc(a2-3)Gal(b1-4)Glc
# Outline: as §1
# [31] = biological target: Neu5Gc(a2-3)Gal(b1-4)GlcNAc
# Outline: as §1
# [32] = biological target: Neu5Gc(a2-3)Gal(b1-4)GlcNAc(b1-3)Gal(b1-4)GlcNAc(b1-2)Man(a1-3)[Neu5Gc(a2-3)Gal(b1-4)GlcNAc(b1-3)Gal(b1-4)GlcNAc(b1-2)Man(a1-6)]Man(b1-4)GlcNAc(b1-4)GlcNAc
# Outline: as §1
# [33] = biological target: Neu5Gc(a2-3)Gal(b1-4)[Fuc(a1-3)]GlcNAc
# Outline: as §1
# [34] = biological target: Neu5Gc(a2-6)Gal(b1-4)GlcNAc
# Outline: as §1
# [35] = biological target: Neu5Gc(a2-6)GalNAc
# Outline: as §1
# [36] = biological target: Neu5Gc(a2-8)Neu5Ac(a2-3)Gal(b1-4)GlcNAc
# Outline: as §1
# [37] = biological target: Neu5Gc(a2-8)Neu5Gc(a2-3)Gal(b1-4)GlcNAc
# Outline: as §1
# [38] = biological target: Neu5Gc(a2-8)Neu5Gc(a2-3)Gal(b1-4)GlcNAc(b1-3)Gal(b1-4)GlcNAc
# Outline: as §1
binder,measurement,setting,value
Cohesin-marm-DC-ASGPR-CRD (protein) LDITSHHHHHHDDLDAVRIKVDTVNAKPGDTVRIPVRFSGIPSKGIANCDFVYSYDPNVLEIIEIEPGDIIVDPNPDKSFDTAVYPDRKIIVFLFAEDSGTGAYAITKDGVFATIVAKVKEGAPNGLSVIKFVEVGGFANNDLVEQKTQFFDGGVNVGDTTEPATPTTPVTTPTTTDDLDAASCPINWVEHQGSCYWFSRSGKTWPEAERYCQLENTHLVVINSREEQNFVQAHLGSAYTWMGLSDPEGVWKWVDGTDYSSGFQNWKPGQPDDWQGHGLGGGEDCAHFHPDGRWNDDVCQRSYHWVCEAGLTQASQDSH,glycan array binding signal (z-score),[1],-0.314
same,glycan array binding signal (z-score),[2],-0.462
same,glycan array binding signal (z-score),[3],-0.371
same,glycan array binding signal (z-score),[4],-0.451
same,glycan array binding signal (z-score),[5],3.16
same,glycan array binding signal (z-score),[6],2.67
same,glycan array binding signal (z-score),[7],2.35
same,glycan array binding signal (z-score),[8],-0.444
same,glycan array binding signal (z-score),[9],-0.45
same,glycan array binding signal (z-score),[10],-0.427
same,glycan array binding signal (z-score),[11],-0.307
same,glycan array binding signal (z-score),[12],-0.448
same,glycan array binding signal (z-score),[13],-0.448
same,glycan array binding signal (z-score),[14],-0.462
same,glycan array binding signal (z-score),[15],2.38
same,glycan array binding signal (z-score),[16],2.56
same,glycan array binding signal (z-score),[17],-0.444
same,glycan array binding signal (z-score),[18],-0.449
same,glycan array binding signal (z-score),[19],-0.419
same,glycan array binding signal (z-score),[20],2.38
same,glycan array binding signal (z-score),[21],3.12
same,glycan array binding signal (z-score),[22],-0.459
same,glycan array binding signal (z-score),[23],-0.444
same,glycan array binding signal (z-score),[24],-0.192
same,glycan array binding signal (z-score),[25],-0.164
same,glycan array binding signal (z-score),[26],-0.447
same,glycan array binding signal (z-score),[27],-0.353
same,glycan array binding signal (z-score),[28],-0.441
same,glycan array binding signal (z-score),[29],-0.423
same,glycan array binding signal (z-score),[30],-0.435
same,glycan array binding signal (z-score),[31],-0.42
same,glycan array binding signal (z-score),[32],-0.396
same,glycan array binding signal (z-score),[33],2.58
same,glycan array binding signal (z-score),[34],-0.421
same,glycan array binding signal (z-score),[35],2.85
same,glycan array binding signal (z-score),[36],-0.448
same,glycan array binding signal (z-score),[37],-0.448
same,glycan array binding signal (z-score),[38],-0.462

# Source: the supplement of paper PMC8728848
